Hit rate of the full screen: of about 45,000 compounds, about 65 (0.1%) were called active. The call rests on the fitted dose curve; in most records, active means well fitted activation curve with a large enough effect; inconclusive means small, poorly fitted or top-dose-only effect; inactive means no such curve, though single readings can be large or run the other way. Some of the results follow.
target: Galactocerebrosidase (Homo sapiens) (UniProt P54803); test: A Novel Cell-Based Assay to Identify Small Molecules for B -Galactocerebrosidase; conditions: 145M-Twi-hGALC-G270D cells (Twitcher mouse brain line with human GALC G270D), HMU-beta-Gal fluorescence, 48 h; series mostly up to 57.5 µM; activation: at the top concentration; further: 0% is about no effect; nearly all actives have a fitted effect of over 65% in size
How it was run: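 Mutant human GALC (G270D), stably expressed in a Twitcher mouse brain cell line lacking endogenous GALC, is measured in live-treated cells via 6-hexadecanoylamino-4-methylumbelliferyl-β-galactoside hydrolysis (0.1 mM final, pH 5.2) with fluorescent detection.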

Chain of UniProt P54803 (P54803 whole entry, looked up): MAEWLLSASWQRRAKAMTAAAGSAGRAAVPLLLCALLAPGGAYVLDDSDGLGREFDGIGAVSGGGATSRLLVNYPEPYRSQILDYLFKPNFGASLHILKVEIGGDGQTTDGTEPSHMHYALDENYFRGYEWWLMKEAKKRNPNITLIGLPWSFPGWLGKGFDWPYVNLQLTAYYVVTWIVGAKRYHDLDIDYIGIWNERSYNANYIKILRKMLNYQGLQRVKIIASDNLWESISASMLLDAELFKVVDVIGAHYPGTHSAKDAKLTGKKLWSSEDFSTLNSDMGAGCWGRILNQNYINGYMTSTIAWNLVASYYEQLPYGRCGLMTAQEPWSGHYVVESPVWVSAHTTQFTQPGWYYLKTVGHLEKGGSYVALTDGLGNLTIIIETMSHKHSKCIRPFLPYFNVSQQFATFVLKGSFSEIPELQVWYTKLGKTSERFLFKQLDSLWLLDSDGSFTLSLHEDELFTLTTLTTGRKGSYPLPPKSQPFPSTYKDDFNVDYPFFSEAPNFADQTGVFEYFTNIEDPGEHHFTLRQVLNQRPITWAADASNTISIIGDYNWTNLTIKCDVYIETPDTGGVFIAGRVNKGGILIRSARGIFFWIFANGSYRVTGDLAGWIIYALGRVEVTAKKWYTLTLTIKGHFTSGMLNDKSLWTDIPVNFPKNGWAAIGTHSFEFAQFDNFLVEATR

activation, inactive:
Cn1cc(C(=O)Nc2ccc(C#N)cc2)c2ccccc2c1=O -5.87%
COc1ccc(CCn2c(=O)c3cccnc3n(CC(=O)Nc3ccc(C)cc3C)c2=O)cc1OC 1.16%
O=C(Nc1cccc(C(=O)OCc2cc(=O)n3c4c(sc3n2)CCCC4)c1)c1cccc(Cl)c1 -17.2%
COc1cccc(NC(=O)Cn2nnc(C(=O)NCCc3ccccc3)c2N)c1 -5.27%
Cc1ccc(Cl)cc1NC(=O)C1CCN(C(=O)c2cnn(-c3ccccc3)c2-n2cccc2)CC1 -16.3%
O=C(CSc1nc2c([nH]c3ccccc32)c(=O)n1-c1ccc(F)cc1)NCc1ccc(F)cc1 -10.5%
CCOc1ccc(CCNC(=O)c2ccc3c(c2)nc2n3CCOC2)cc1OCC -2.41%
CC(C)OCCCNC(=O)CCCn1c(SCC(N)=O)nc2c(sc3ccccc32)c1=O -7.77%
CCOc1ccc(-c2cc(-c3nc(-c4ccc(C)cc4)no3)[nH]n2)cc1 -6.88%
CC(=O)c1cccc(NC(=O)C(C)n2c(=O)cc(-c3ccccc3)c3c(C)nn(C)c32)c1 (stereo not given) -21.5%
COc1cccc(CNC(=O)c2ccc(NC(=O)N3CCCCc4ccccc43)cc2)c1OC -12.7%
CCc1cccc(C)c1NS(=O)(=O)c1c(C)nc2sccn2c1=O -9.4%
O=C(Cn1c(=O)oc2cc(S(=O)(=O)N3CCCC3)ccc21)NCc1ccc(F)cc1 -2.26%
COc1cccc(CNC(=O)c2c(C)oc3nc(C)nc(N4CCOCC4)c23)c1 -14.7%
CCOC(=O)C1CCN(C(=O)CSc2n[nH]c(-c3ccc(F)cc3)n2)CC1 -6.45%
COC(=O)CSc1ncc2c(n1)-c1ccccc1N(Cc1cccc(F)c1)S2(=O)=O -9.62%
CCN1C(=O)c2ccccc2S(=O)(=O)c2ccc(C(=O)NCc3ccccc3Cl)cc21 -15.1%
O=C(O)[C@@H]1[C@H]2C[C@H]3c4[nH]c5ccccc5c4CCN3C[C@@H]2CC[C@@H]1O -1.64%
O=C(Cn1ccc2cc(S(=O)(=O)N3CCCCCC3)ccc21)NCCc1ccc(Cl)cc1 -6.83%
Cc1cccc(C(=O)Nc2ccc(OCc3cc(=O)n4ccsc4n3)cc2)c1 3.5%
O=C(NC1CCCCCC1)C1c2ccccc2C(=O)N1Cc1ccccc1Cl (stereo not given) -10.6%
CCN(CC)S(=O)(=O)c1ccc2c(c1)N(CC(=O)N1CCN(c3ccc(Cl)cc3)CC1)C(=O)CO2 -16.1%
CC(C)OC(=O)c1cccnc1SCC(=O)Nc1ccc(C(F)(F)F)cc1Cl 5.76%
Cc1ccc(-n2c3c(cc(C(=O)Nc4cccc(Cl)c4)c2=O)C(=O)CC(C)(C)C3)cc1 21.9%
CCN1CCN(C(=O)c2ccc3c(c2)N(Cc2ccccc2F)C(=O)c2ccccc2S3=O)CC1 (stereo not given) -1.23%
CCc1ccc(NC(=O)C2CCCN(S(=O)(=O)c3c(C)noc3/C=C/N(C)C)C2)cc1 (stereo not given) -4.82%
CCOc1ccccc1-c1nc(SCC(=O)c2ccc(OC)c(Br)c2)n[nH]1 -14.2%
Cc1ccc(Cl)cc1N1CCN(C(=O)CCCCCn2c(=O)[nH]c3ccccc3c2=O)CC1 -16.3%
CNS(=O)(=O)c1cc(-c2nnc(Nc3cc(C)ccc3C)c3ccccc23)ccc1C -28.3%
COc1ccccc1N1CCN(C(=O)c2cnc(N3CCCCC3)c3ccccc23)CC1 -16.4%
Cc1ccc(-c2nnc(SCC(=O)NCc3ccccc3)nc2-c2ccc(C)cc2)cc1 -1.36%
CCc1ccc(C(=O)NC(Cc2c[nH]c3ccccc23)C(=O)OCC(=O)c2ccc(Br)cc2)cc1 (stereo not given) -2.04%
Cc1cc2c(cc3c(SCC(=O)Nc4cccc(Cl)c4C)nnc(C)n32)o1 -17%
CCOC(=O)c1cnc2ccccc2c1Nc1cccc(OC)c1 -14.2%
Cc1cnc(=O)[nH]c1SCC(=O)Nc1nc2ccccc2s1 -17.3%
Cc1ccc2oc(-c3cccc(NC(=O)c4sc5c([N+](=O)[O-])cccc5c4Cl)c3)nc2c1 -11%
O=c1c2sccc2n(Cc2cc(=O)n3ccccc3n2)c(=O)n1-c1cccc(C(F)(F)F)c1 -12.6%
O=C(COc1ccc(F)cc1)NCCc1nc2ccccc2[nH]1 -14.6%
CCOc1ccc(CCNC(=O)c2c(C)oc3ncn(C)c(=O)c23)cc1 -13.5%
Cc1cc(-c2ccc(C)c(S(=O)(=O)Nc3cccc(C#N)c3)c2)on1 -9.07%
COc1ccc(/C=C/C(=O)Nc2ccc(Cl)c(Cl)c2)cc1 -2.72%
Cc1ccccc1NS(=O)(=O)c1ccc2[nH]c3c(c2c1)CCCCC3 -3.84%
O=C(NCCCN1CCOCC1)c1ccc(Cl)cc1 -13.9%
Cc1ccc(Cl)cc1N1CCN(C(=O)c2ccc3nc(N4CCC(C)CC4)sc3c2)CC1 -2.76%
CCOC(=O)c1cc(-c2ccccc2)n(CCC(=O)Nc2nc3c(C)cccc3s2)c1C -0.899%
CC(C)CCOc1ccccc1Cn1c(=O)sc2ccccc21 -14.1%
Cc1ccc(-c2cc3c(N4CCN(c5cc(C)ccc5C)CC4)nccn3n2)cc1 -19.1%
CC(=O)N1c2c(cc(Br)cc2S(=O)(=O)N2CCN(c3ccccc3)CC2)CC1C (stereo not given) -11.3%
CCc1ccc(-n2c(=O)c3c(C)c(C(=O)N(C)C)sc3n(Cc3ccccc3F)c2=O)cc1 -2.04%
CCOc1ccccc1CNC(=O)CCn1ccc2cc(S(=O)(=O)N3CCCCC3)ccc21 -15.5%
Cn1c(=O)c2sccc2n2c(CCCC(=O)Nc3ccc(Oc4ccc(Cl)cc4)cc3)nnc12 -9.22%
COc1ccc(-c2cc(OC(=O)c3cccc(C)c3)c3c(C)oc(C)c3c(=O)c2)cc1 -13.9%
Cc1cc(C)c(NC(=O)Cn2nnc(C(=O)Nc3ccc(F)cc3F)c2N)c(C)c1 3.21%
Cc1ccc(CNC(=O)c2ccc3c(c2)nc2n3CCCC2)cc1 -25.5%
CC(=O)Nc1ccc(NC(=O)c2c(C)nn(-c3ccccc3)c2-n2cccc2)cc1 -10.3%
Cc1ccc(CNc2ncnc3c2cnn3-c2ccc(C)cc2C)cc1 -16.2%
Cc1cc(C)n(-c2nc(C)c(C)c(=O)n2CC(=O)Nc2ccc(Cl)c(Cl)c2)n1 -14.1%
COc1ccc(NC(=O)CCNS(=O)(=O)c2ccc3c(c2)CCN3C(=O)C2CC2)cc1Cl -33.2%
COc1ccc(-c2nnc(SCC(=O)Nc3cccc(Cl)c3C)nc2-c2ccc(OC)cc2)cc1 3.71%
CCn1cc(C(=O)NCc2ccccc2OC)c(=O)c2cc(S(=O)(=O)N3CCCCCC3)ccc21 5.73%
